For part of its entries the source gives two or more results. Only these are listed. There may be further records. Results that share an entry are repeated measurements (runs, samples, wells, individuals or studies). Marks such as (2×) say how often a value occurs here.
System: 885724-159-R-J1-PDC complex spheroid viability
Assay: Anticancer human tumor 885724-159-R-J1-PDC patient-derived pancreatic adenocarcinoma cell line growth inhibition [GQUAD]
Details: stronger effect = lower value
Text: DNA G-quadruplex Stabilizer Agents in Combinations in Complex Spheroids
A high-throughput screen of multi-cell type tumor spheroids was designed to identify active combinations of DNA G-quadruplex stabilizer agents and targeted small molecules. Complex spheroids include a stromal component modeled by human endothelial cells (HUVEC) and fibroblasts modeled by human mesenchymal stem cells (MSCs). The concentration ranges selected for each drug and investigational agent were based upon clinically achievable concentrations if the clinical Cmax of the agent was known.
Compounds. The drugs and investigational agents: pidnarulex (CX-5461; NSC782164), APTO-253 (NSC789042), BRACO-19 (NSC847499), peposertib (NSC802822), ceralasertib (NSC780249), elimusertib (NSC800525), camonsertib (NSC841442), AZD-1390 (NSC803789), olaparib (NSC753686), talazoparib (NSC767125), ART-558 (NSC835418), sotorasib (NSC818433), MRTX-1133 (NSC836407), SN-38 (NSC673596), topotecan (NSC609699), etoposide (NSC141540), doxorubicin (NSC123127), gemcitabine (NSC613327), 5-fluorouracil (NSC19893), paclitaxel (NSC125973), vemurafenib (NSC761431), panobinostat (NSC761190), R-306465 (JNJ-16241199; NSC773264), adavosertib (NSC754352), TP-3654 (NSC805149), carboplatin (NSC241240), KSQ-4279 (NSC840948), and staurosporine (NSC755774) were obtained from the National Cancer Institute (NCI) Developmental Therapeutics Program Chemical Repository (34). The FDA-approved anticancer drug set is available from the NCI Developmental Therapeutics Program. […] The stock solutions were prepared in dimethyl sulfoxide (DMSO, Sigma-Aldrich, St. Louis, MO, cat. D2650) at 800-fold the tested concentration and stored at -70 degrees C prior to their use. All drugs and investigational agents were tested over a range starting from a high concentration at or near the clinical Cmax and decreasing in half-log increments. If the clinical Cmax for an agent had not been determined, the highest concentration tested was 10 microM.
2.3 Cell Culture. All cells were maintained in an incubator at 37 degrees C and 5% CO2 with 95% humidity. The PDC lines were cultured according to standard operating procedures established by the NCI PDMR. All PDCs were thawed and cultured in Matrigel-coated flasks prepared with a working solution of 1X Ham's F-12 nutrient mix, without supplementation (Invitrogen, cat. 11765054), 100 U/mL penicillin-streptomycin (Invitrogen, cat. 15140122), and 2.5% Matrigel (Corning Inc., cat. 354248) for the first three passages. […]
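Also: spheroids exposed to agents for seven days before readout; percent of vehicle control viability where 100% = DMSO wells.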

SMILES	viability, T/C (compound alone 0.1 µM)	viability, T/C (compound alone 3.16 µM)	viability, T/C (compound alone 0.0316 µM)
Cc1[nH]c2ccc(F)cc2c1-c1nc2c3cccnc3c3ncccc3c2[nH]1	95, 88.6, 96.2, 106, 83.8, 100, 92.3, 109, 108, 96.9, 94.4, 107%	42.7, 48.7, 44.2, 46.9, 61.3, 57.3, 67.8, 66.4, 26.9, 30.7, 24.3, 31.7%	–
Cc1cnc(CNC(=O)c2c(=O)c3ccc(N4CCCN(C)CC4)nc3n3c2sc2ccccc23)cn1	109, 110, 115, 95.9, 96.5, 97.3, 108, 100, 105, 121, 96.3, 93.9%	–	108, 114, 89, 115, 96.7, 93, 91.7, 97.9, 113 (2×), 94.2, 106%

Reference: PubChem BioAssay AID2060502 (Molecular Pharmacology Branch, DTP, NCI, 2025)
